Test results as given in PubChem BioAssay AID1030 (National Center for Advancing Translational Sciences (NCATS), 2008).
Among all 220,000 compounds or so, about 16,000 (7.3%) were called active. The shares of active, inactive and inconclusive entries below differ from those in the screen. Calls follow the shape of the dose curve; as a rule, active = well fitted inhibition curve with a large enough effect (not every such curve was filed as active); inconclusive = small, poorly fitted or top-dose-only effect, or another doubt; inactive = no such curve, though single readings can be large or run the other way. Where the call is inconclusive, the potency comes from a doubtful curve fit.

Each compound was assayed against Aldehyde dehydrogenase 1A1 (Homo sapiens) (UniProt P00352) (assay: qHTS Assay for Inhibitors of Aldehyde Dehydrogenase 1 (ALDH1A1)). Conditions: Purified ALDH1A1, NADH fluorescence, propionaldehyde substrate; series mostly up to 75.3 µM; activity, negative = inhibition: at the top concentration.
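For activity, negative = inhibition in this document: plate controls were no enzyme wells and a reference inhibitor.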
Potency is read from the fitted curve at half-maximal effect; tags tell the direction and shape of the fitted curve.

Sequence of UniProt P00352 (P00352 whole entry, looked up): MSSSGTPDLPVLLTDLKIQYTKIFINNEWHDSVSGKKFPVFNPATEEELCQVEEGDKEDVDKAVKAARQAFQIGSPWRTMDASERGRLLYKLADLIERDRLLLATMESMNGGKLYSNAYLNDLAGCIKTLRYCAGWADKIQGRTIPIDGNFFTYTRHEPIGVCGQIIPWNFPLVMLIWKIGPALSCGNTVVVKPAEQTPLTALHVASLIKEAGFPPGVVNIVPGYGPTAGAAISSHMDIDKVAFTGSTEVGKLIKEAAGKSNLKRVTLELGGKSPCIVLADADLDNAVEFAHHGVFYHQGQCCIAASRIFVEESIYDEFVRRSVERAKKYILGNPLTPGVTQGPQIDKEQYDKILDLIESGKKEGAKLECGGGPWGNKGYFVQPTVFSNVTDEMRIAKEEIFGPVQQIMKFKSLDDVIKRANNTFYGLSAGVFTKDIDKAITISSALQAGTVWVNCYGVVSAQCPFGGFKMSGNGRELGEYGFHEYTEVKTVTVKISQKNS

activity, negative = inhibition, inactive:
CCCCc1nc2c(c3c1C[C@H](C)OC3)CN(C(=O)N[C@H](C(=O)OC)C(C)C)CC2 -1.67% [at 13.5 µM]
CCC1Oc2ccc(C)cc2N(CC(=O)N(Cc2ccc(C)o2)C2CC(C)(C)NC(C)(C)C2)C1=O (configuration not stated) 2.89%
Cc1ccc2nc(SCc3cn4cccnc4n3)[nH]c2c1 -1.72%
COC(=O)[C@@H]1CCCN1Cc1c(C(=O)N2CCCCC2)nc2c(C)cccn12 4.72%
CCOC(=O)c1ccccc1NC(=S)N1CCC(C(N)=O)CC1 -8.79%
Cc1ccc(C2(c3noc(CN4CCC(C(=O)N5CCOCC5)CC4)n3)CCCC2)cc1 2.4%
O=C(COC(=O)c1c2c(nc3ccccc13)CCCCC2)c1ccc(Cl)s1 -0.0469%
CCOC(=O)C1OC1C(=O)NC(CC(C)C)C(=O)NCCC(C)C (configuration not stated) 0.573%
Cc1noc(NS(=O)(=O)c2ccc(NC(=O)c3cc(-c4ccccc4Cl)nc4ccccc34)cc2)c1C 4.32%
COc1cc(C(=O)N(Cc2ccc(N(C)C)cc2)C2CCS(=O)(=O)C2)cc(OC)c1OC (configuration not stated) -4.2%
CN(C)CCCN=c1cc(-c2ccccc2)oc2ccc(Cl)cc12 -0.841%
Cc1ccc(S(=O)(=O)N2CCOCC2)cc1NC(=O)COC(=O)c1n[nH]c(=O)c2ccccc12 11.8%
Cn1c(N)c(C(=O)c2ccc(C#N)cc2)c(=O)n(C)c1=O 13.6%
Cc1cccc(OCC(=O)N/N=C2/SCC(=O)N2Cc2ccco2)c1 11.1%
Nc1cc(N2CCCC2)ccc1[N+](=O)[O-] -1.62%
CC(C)C(OC(=O)c1ccco1)C(=O)NCc1ccco1 (configuration not stated) -9.27%
CC(=O)Nc1ccc(C(=O)OCC(=O)NCc2ccc(Cl)cc2)cc1 3.23%
CCCc1cc(-c2nc(N)ncc2-c2csc(C)n2)c(O)cc1OC -0.0824%
CC(C)C(=O)c1cn(CC(=O)N2CCCc3ccccc32)c2ccccc12 -8.02%
CCN1CCN(c2ccc(NC(=O)c3ccc4c(c3)[nH]c(=O)n4Cc3ccc(F)cc3)cc2)CC1 -0.784%

Potency, active:
CCn1c(SCC(=O)N2CCCCC2)nc2c(c1=O)SC(C)C2 (configuration not stated) 22.4 µM
CCc1cc(C(=O)c2ccc(OC)cc2)c(NC(=O)CN2CCCC2)s1 10 µM
CN(C)c1ccc(C=C2C(=O)OC(C)(C(C)(C)C)OC2=O)cc1 (configuration not stated) 0.398 µM
CCCCNC(=O)CSc1nc2ccc(NC(=O)CSc3nnc(N)s3)cc2s1 20 µM
S=C(Nc1ccccn1)c1ccccn1 3.55 µM
Cc1ccc2c(C)nc(Nc3nc(CSc4nnnn4-c4ccccc4)cc(=O)[nH]3)nc2c1 3.98 µM
COc1ccc(Cc2noc(CN3CCN(Cc4cccc(Cl)c4)CC3)n2)cc1OC 8.91 µM
O=C(NC(=S)NNC(=O)c1ccc(Cl)cc1Cl)c1cccnc1 23.8 µM
CC(=O)Cn1ncc(Br)c(Br)c1=O 3.55 µM

Potency, inconclusive:
Clc1ccc(-c2nnnn2-c2ccc(Cl)c(Cl)c2)cc1Cl 7.08 µM [inhibitor, single point]
COCCn1c(=O)c(-c2cccc(C#N)c2)nc2cnc(N3CCNCC3)nc21 2.24 µM [inhibitor, full curve]
COC(=O)c1cc2ccsc2n1Cc1cc(=O)n2ccccc2n1 39.8 µM [inhibitor, partial curve]
CCOc1cc(C(=O)N(C)Cc2cc3cc(OC)ccc3[nH]c2=O)cc(OCC)c1OCC 39.8 µM [inhibitor, single point]
Cc1ccc2[nH]c(=O)c(CN(Cc3cccnc3)Cc3nnnn3CCN3CCOCC3)cc2c1 39.8 µM [inhibitor, single point]
CCCn1nc(NC(=O)C2CCCO2)c2cc3cc(C)ccc3nc21 (configuration not stated) 39.8 µM [inhibitor, single point]
O=C(N/N=C/c1ccc(N2CCOCC2)o1)c1ccccc1[N+](=O)[O-] 39.8 µM [inhibitor, single point]
O=C1CC(O)(C(F)(F)F)Oc2c1ccc1ccccc21 (configuration not stated) 28.2 µM [inhibitor, single point]
CCN(CC)c1ccc(/C=c2\sc3nc4ccccc4n3c2=O)c(O)c1 39.8 µM [inhibitor, single point]
CN(C)c1ccc(C(=S)Nc2ccccc2)cc1 25.1 µM [inhibitor, single point]
Cc1nc(-c2cn[nH]c2)c2cc(C)oc2n1 35.5 µM [inhibitor, single point]
Cc1cc(C)c(CSc2ncc(-c3ccc([N+](=O)[O-])cc3)[nH]2)c(C)c1 39.8 µM [inhibitor, single point]
Cc1cc(C(=O)OCC(=O)N2c3ccccc3CC2C)c(C)o1 (configuration not stated) 39.8 µM [inhibitor, single point]
CC(=O)C1=C(O)C(=O)N(c2cc(C(C)(C)C)on2)C1c1ccc(C(C)C)cc1 (configuration not stated) 20 µM [inhibitor, partial curve]
COc1ncc2nc(-c3ccc(F)cc3)c(=O)n(C3CC3)c2n1 39.8 µM [inhibitor, single point]
CCOC(=O)N1CCC(NC(=O)c2ccc3nc4ccccc4c(=O)n3c2)CC1 20 µM [inhibitor, partial curve]
O=C(c1cccs1)N1CCC(c2nc3c(nnn3Cc3ccccc3)c(=O)[nH]2)CC1 44.7 µM [inhibitor, single point]
COc1cccc(C(=O)Nc2cccc(-c3nnc(-c4ccco4)o3)c2)c1 25.1 µM [inhibitor, partial curve]
COc1ccc(OC)c(-c2nnc(SCC(=O)N3CCCc4ccccc43)o2)c1 22.4 µM [inhibitor, single point]
CCCC[n+]1ccn(-c2nc3ccccc3nc2[N-]S(=O)(=O)c2ccccc2)c1 25.1 µM [inhibitor, partial curve]
COc1cc(C(=O)OCC(=O)c2c[nH]c3ccccc23)ccc1OCC(=O)N1CCOCC1 39.8 µM [inhibitor, single point]
COc1cc(OC)cc(C(=O)N2CCN(C(=O)c3cccc(F)c3)CC2)c1 35.5 µM [inhibitor, single point]
COc1cccc(-n2cc(C(=O)O)c3ccccc3c2=O)c1 28.2 µM [inhibitor, single point]
COc1cccc(OC)c1OCCCCN1CCCC1 44.7 µM [inhibitor, single point]
CC(C)CC(=O)NC(=S)NCc1ccccc1 28.2 µM [inhibitor, partial curve]
COc1cccc(Nc2ncccc2C(=O)NCc2ccccc2)c1 35.5 µM [inhibitor, single point]
CCOc1ccc(C(=O)/C=C/Nc2ccc(S(=O)(=O)N=C(N)N)cc2)cc1 25.1 µM [inhibitor, single point]
CCc1c(C)[nH]c2nc3ccccc3n2c1=O 39.8 µM [inhibitor, single point]
CCCN(CCC)C(=O)CC(c1ccc(F)cc1)c1ccco1 (configuration not stated) 39.8 µM [inhibitor, single point]
Oc1ccc(N2CCN(c3ncnc4sc5c(c34)CCC5)CC2)cc1 35.5 µM [inhibitor, single point]
CCOC(=O)c1cc(C#N)c(SC)nc1-c1ccccc1 31.6 µM [inhibitor, single point]
COc1cc(-c2nnc(COC(=O)CSc3cc(C)c4ccccc4n3)o2)cc(OC)c1OC 39.8 µM [inhibitor, single point]
FC(F)(F)c1cccc(Sc2cc(C(F)(F)F)nc(-c3ccccn3)n2)c1 28.2 µM [inhibitor, single point]
CN1C(=O)c2cccc(NCCCCCCN3C(=O)c4ccccc4C3=O)c2C1=O 28.2 µM [inhibitor, partial curve]
S=C(N/N=C/c1ccc2c(c1)OCO2)NC1CC2CCC1C2 (configuration not stated) 0.0282 µM [inhibitor, full curve, poor fit]
Cc1ccc2c(c1)cc(CN(Cc1ccc3c(c1)OCO3)C(=O)c1ccccc1)c1nnnn12 8.91 µM [inhibitor, full curve]
C=CCn1c(O)c(N=NC(=S)Nc2ccc(OC)cc2)c2ccccc21 28.2 µM [inhibitor, partial curve]
CCCn1c(SCC(=O)N2CCN(C(=O)c3ccco3)CC2)nc2ccccc2c1=O 35.5 µM [inhibitor, single point]
CC(C)(C)c1ccc(C(=O)NCc2nnc(SCC(=O)N3CCCc4ccccc43)n2-c2ccccc2)cc1 0.1 µM [inhibitor, partial curve, poor fit]
O=c1c2oc3ccccc3c2ncn1Cc1ccccc1Cl 17.8 µM [inhibitor, partial curve]
CSc1nc2[nH]c3c(c2c2nnnn12)CCCC3 39.8 µM [inhibitor, single point]
CCCNCC1C(Oc2ccc(Cl)cc2Cl)C(=O)N1c1cccc(C)c1C (configuration not stated) 39.8 µM [inhibitor, single point]
CCOC(=O)c1cccc(-n2c(-c3ccc(OC)cc3)nc3nc4ccccc4nc32)c1 17.8 µM [inhibitor, partial curve]
